{"source": "PubChem BioAssay AID651820", "about": "(National Center for Advancing Translational Sciences (NCATS), 2012)", "note": "The whole screen tested about 340,000 compounds, of which about 12,000 (3.5%) were called active. This list was built around the results that the source calls inconclusive (neither active nor inactive); the mix of calls is not that of the screen. The call rests on the fitted dose curve; in most records, active means well fitted inhibition curve with a large enough effect; inconclusive means small, poorly fitted or top-dose-only effect, or another doubt; inactive means no such curve, though single readings can be large or run the other way. No potency is given beside an inconclusive call; the fits are too rough. Potency means the concentration at half of the fitted maximal effect; tags describe the fitted curve by direction and shape."}
{"assay": "qHTS Assay for Inhibitors of Hepatitis C Virus (HCV)", "conditions": "Huh7.5.1 HCVcc-Cre (HCVcc is cell-culture hepatitis C virus) infection, luciferase reporter, 44 h; series mostly up to 41.8 µM", "method_in_brief": "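1,000 cells/well; 4 h culture; + compound; + HCVcc-Cre (~0.5 moi); 44 h; luciferase substrate, RT 15 min; read 15 sec.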"}
{"smiles": "Cc1cccc2cc(CN(Cc3nnnn3Cc3ccccc3)C3CCCC3)c(=O)[nH]c12", "Potency": "inconclusive [inhibitor, partial curve]"}
{"smiles": "CC(=O)Nc1ccc(C(=O)COC(=O)C2CC2C)c(F)c1", "note": "(stereo not drawn)", "Potency": "active: 12.6 µM"}
{"smiles": "COc1ccc(OCC(=O)Nc2nc3c(s2)CCCC3)cc1", "Potency": "inconclusive [inhibitor, partial curve]"}
{"smiles": "Cc1onc(-c2ccccc2Cl)c1C(=O)OCC(=O)c1c(N)n(C)c(=O)n(C)c1=O", "Potency": "inconclusive [inhibitor, single point]"}
{"smiles": "Cc1cc(C)cc(C(=O)N2CC(C)SC2=Nc2cccc(S(=O)(=O)N(C)C)c2)c1", "note": "(stereo not drawn)", "Potency": "inconclusive [inhibitor, partial curve]"}
{"smiles": "COc1ccc(S(=O)(=O)N(CC(=O)NCC2CCCO2)Cc2ccccc2)cc1C", "note": "(stereo not drawn)", "Potency": "inactive"}
{"smiles": "O=C(Nc1ccc2c(c1)CCC2)c1cccc(S(=O)(=O)N2CCN(c3ccc(F)cc3)CC2)c1", "Potency": "inconclusive [inhibitor, full curve, poor fit]"}
{"smiles": "CCOC(=O)c1c(C)n2c3c(cc(C)cc13)CCC2", "Potency": "active: 10 µM"}
{"smiles": "Cc1ccccc1Cn1cc(NC(=O)c2cc(-c3ccco3)on2)cn1", "Potency": "inconclusive [inhibitor, partial curve]"}
{"smiles": "CCN1CCN(Cc2ccc(C(=O)Nc3ccc(C)c(NCc4cnc(NC(=O)OC)cn4)c3)cc2C(F)(F)F)CC1", "Potency": "inconclusive [inhibitor, full curve, poor fit]"}
{"smiles": "COc1cc(NC(=O)COC(=O)/C=C/c2ccc(OC)c(OC)c2)cc(OC)c1", "Potency": "inconclusive [inhibitor, single point]"}
{"smiles": "Cc1csc2nc(O)c(C(=O)NCc3ccc4c(c3)OCO4)c(=O)n12", "Potency": "inconclusive [inhibitor, partial curve, poor fit]"}
{"smiles": "Cc1ccccc1NC(=S)NCc1ccc2[nH]c3c(c2c1)CCCC3", "Potency": "inconclusive [inhibitor, partial curve]"}
{"smiles": "CC(=O)NCCc1ccc(S(=O)(=O)N2CCN(c3nc(-c4ccccc4)c(C)s3)CC2)cc1", "Potency": "inactive"}
{"smiles": "COc1ccc2sc(-c3ccccc3OC)c(C#CCCO)c2c1", "Potency": "inconclusive [inhibitor, partial curve]"}
{"smiles": "COc1ccc(CN(Cc2cccn2C)S(=O)(=O)c2cccc(C(F)(F)F)c2)cc1", "Potency": "inconclusive [inhibitor, single point]"}
{"smiles": "O=Cc1ccc(OCc2cn(CC(=O)c3ccc(O)cc3)nn2)cc1", "Potency": "inconclusive [inhibitor, single point]"}
{"smiles": "Cc1ccccc1OCCCC(=O)Nc1ccc2c(c1)OCO2", "Potency": "inconclusive [inhibitor, single point]"}
{"smiles": "CC(C)(C)OC(=O)N[C@@H](C(=O)OC(C)(C)C)c1ccc(C(F)(F)F)cc1", "Potency": "inactive"}
{"smiles": "CC(C)(C)NC(=O)c1cccc(NC(=O)c2ccc3c(c2)C(=O)N(C(C)(C)C)C3=O)c1", "Potency": "inconclusive [inhibitor, partial curve, poor fit]"}
{"smiles": "Cc1cccc(NC(=O)CSc2ccc(-c3cccs3)nn2)c1C", "Potency": "inactive"}
{"smiles": "Cc1ccc(S(=O)(=O)NCCCNS(=O)(=O)c2ccccc2Br)cc1", "Potency": "inconclusive [inhibitor, partial curve]"}
{"smiles": "O=C1/C(=C/c2ccccc2)NC(=S)N1C(c1ccccc1)c1ccccc1", "Potency": "inconclusive [inhibitor, full curve]"}
{"smiles": "COc1cccc(CNC(=O)CCCCCNC(=O)N2CCn3c2nc2ccccc23)c1", "Potency": "inactive"}
{"smiles": "COc1cc(-c2nc(-c3cccnc3)no2)cc(OC)c1OC", "Potency": "inactive"}
{"smiles": "Cc1ccccc1C(=O)Nc1nnc(-c2ccc(F)cc2)o1", "Potency": "inactive"}
{"smiles": "O=C(NC1=NCCS1)c1ccc(-c2ccc(Cl)cc2)o1", "Potency": "inconclusive [inhibitor, single point]"}
{"smiles": "O=c1cc(CN2CCN(Cc3ccccc3)CC2)c2ccc(O)c(O)c2o1", "Potency": "inconclusive [inhibitor, partial curve]"}
{"smiles": "COc1cc(C(=O)OCc2ccc(C)cc2)cc(NC(=O)c2cccs2)c1OC", "Potency": "inconclusive [inhibitor, full curve, poor fit]"}
{"smiles": "Cc1c(Cl)cccc1NC(=O)c1ccc(-n2ccnc2)nc1", "Potency": "inconclusive [inhibitor, single point]"}
{"smiles": "Cc1ccc(O)c(C(=O)c2cnc3c(c2)c(-c2ccc(F)cc2)c(C#N)c(=O)n3C)c1", "Potency": "inconclusive [inhibitor, partial curve]"}
{"smiles": "Cc1ccnc(N2CCCC(C(=O)Nc3nnc(C)s3)C2)n1", "note": "(stereo not drawn)", "Potency": "inactive"}
{"smiles": "COc1cc(OC)cc(C(=O)NNC(=O)c2cc3c(s2)CCCC3)c1", "Potency": "inactive"}
{"smiles": "C=CS(=O)(=O)c1sc(Cl)c(N2CCOCC2)c1[N+](=O)[O-]", "Potency": "inconclusive [inhibitor, single point]"}
{"smiles": "CSc1ccc(S(=O)(=O)Nc2ccc(N3CCOCC3)c(Cl)c2)cc1", "Potency": "inconclusive [inhibitor, full curve, poor fit]"}
{"smiles": "CC(C)N1CC=C(c2c[nH]c3ccccc23)CC1", "Potency": "inconclusive [inhibitor, full curve, poor fit]"}
{"smiles": "Cc1ccccc1CSc1ccc(S(=O)(=O)N2CCCC2)cn1", "Potency": "inconclusive [inhibitor, single point]"}
{"smiles": "CCSc1nnc(NC(=O)C2CC2c2ccccc2)s1", "note": "(stereo not drawn)", "Potency": "inconclusive [inhibitor, full curve, poor fit]"}
{"smiles": "CCN(CC)S(=O)(=O)c1ccc(Cl)c(NC(=O)COC(=O)c2ccc(O)cc2)c1", "Potency": "inconclusive [inhibitor, single point]"}
{"smiles": "Cc1cc(C)n2nc(SCC(=O)c3cc(C)n(-c4cc(C)on4)c3C)nc2n1", "Potency": "active: 4.47 µM"}
{"smiles": "COc1ccccc1-c1cc(C(F)(F)F)nc(S(=O)(=O)CCCC(=O)N2CCCCC2C)n1", "note": "(stereo not drawn)", "Potency": "inconclusive [inhibitor, single point]"}
{"smiles": "Cc1ccc(CCN2CCN=C2N(C)C)cc1", "Potency": "inactive"}
{"smiles": "Oc1cccc(Oc2ncc(C(F)(F)F)cc2Cl)c1", "Potency": "inactive"}
{"smiles": "CCOc1ccc(NC(=O)c2sc3nc(C)nc(N4CCOCC4)c3c2C)cc1", "Potency": "inconclusive [inhibitor, partial curve]"}
{"smiles": "COc1cc(NC(=S)NC(=O)c2ccc(C(C)(C)C)cc2)ccc1NC(=O)c1cccs1", "Potency": "inconclusive [inhibitor, full curve]"}
{"smiles": "CCC1Sc2ccc(S(=O)(=O)CCC(=O)NC3CCCCCC3)cc2NC1=O", "note": "(stereo not drawn)", "Potency": "inconclusive [inhibitor, single point]"}
{"smiles": "Cc1ccc(NC(=O)C(C)c2ccc([N+](=O)[O-])cc2)cc1Cl", "note": "(stereo not drawn)", "Potency": "inconclusive [inhibitor, single point]"}
{"smiles": "Cc1ccc(S(=O)(=O)CCC(=O)OCc2ccccc2F)cc1", "Potency": "inactive"}
{"smiles": "Cc1ccc(C(=O)NNC(=O)Cc2nc3nc(C)cc(C)n3n2)cc1", "Potency": "inactive"}
{"smiles": "CSc1ccc(CN2CCC(n3nccc3NC(=O)CCCc3ccccc3)CC2)cc1", "Potency": "inconclusive [inhibitor, single point]"}
{"smiles": "CN(C)S(=O)(=O)c1ccc(S(=O)(=O)N(Cc2ccco2)Cc2ccccc2Cl)cc1", "Potency": "inconclusive [inhibitor, single point]"}
{"smiles": "O=C(c1ccc(Cl)c(S(=O)(=O)N2CCCCCC2)c1)N1CCCC(C(F)(F)F)C1", "note": "(stereo not drawn)", "Potency": "inconclusive [inhibitor, partial curve]"}
{"smiles": "CCCCCC(=O)Nc1nc(C)c(-c2csc(Nc3cc(Cl)ccc3OC)n2)s1", "Potency": "inconclusive [inhibitor, single point]"}
{"smiles": "O=C(Nc1cccc(Cl)c1)c1ccc2c(=O)n3c(nc2c1)CCCCC3", "Potency": "active: 8.91 µM"}
{"smiles": "O=C(OCC(=O)N1CCN(C(=O)c2ccco2)CC1)c1cc(S(=O)(=O)Nc2ccc(Cl)cc2)ccc1O", "Potency": "inactive"}
{"smiles": "Cn1nccc1C(=O)N1CCN(S(=O)(=O)c2ccc(Br)s2)CC1", "Potency": "inactive"}
{"smiles": "Cc1ncc(CSCC(=O)Nc2cc(C(F)(F)F)ccc2Cl)c(CO)c1O", "Potency": "inactive"}
{"smiles": "COc1ccc2cc(C(=O)Nc3ccc(O)cc3)sc(=O)c2c1OC", "Potency": "inconclusive [inhibitor, single point]"}
{"smiles": "O=C(CCn1c2c(c3ccccc31)CCCC2)NNC(=O)c1ccccc1[N+](=O)[O-]", "Potency": "inconclusive [inhibitor, full curve]"}
{"smiles": "O=C(NCc1ccccn1)c1cccc(S(=O)(=O)Nc2ccc(F)cc2)c1", "Potency": "inconclusive [inhibitor, full curve]"}
{"smiles": "CCOc1ccc(/C=C/C2=CC(C)(C)NC(=S)N2)cc1", "Potency": "inconclusive [inhibitor, single point]"}
{"smiles": "CC(C)(C)c1ccc(C(=O)Nc2cccc(S(=O)(=O)NC3=NCCC3)c2)cc1", "Potency": "inconclusive [inhibitor, single point]"}
{"smiles": "COC(=O)CCC(=O)c1oc2ccc(Br)cc2c1N", "Potency": "inactive"}
{"smiles": "O=C(CSc1nc2ccccc2s1)NC1CCCc2ccccc21", "note": "(stereo not drawn)", "Potency": "inconclusive [inhibitor, single point]"}
{"smiles": "CC1(C)Cc2ccccc2/C(=C/C(=O)c2ccccc2)N1", "Potency": "active: 14.1 µM"}
{"smiles": "Cc1ccc(-c2nnn(CC(=O)N(c3ccc(F)cc3)C(C(=O)NC3CCCC3)c3ccco3)n2)o1", "note": "(stereo not drawn)", "Potency": "inconclusive [inhibitor, single point]"}
{"smiles": "CCS(=O)(=O)Nc1cccc(-c2cc(-c3ccccc3)c3cc(C)ccc3n2)c1", "Potency": "inconclusive [inhibitor, partial curve]"}
{"smiles": "Cc1cc(C)c(C#N)c(SCc2nc3ccccc3c(=O)[nH]2)n1", "Potency": "inactive"}
